Out of some 48,000 compounds screened, about 120 (0.25%) were called active. Roughly 4% stayed inconclusive and do not appear here. Calls follow the shape of the dose curve; as a rule, active = well fitted activation curve with a large enough effect; inconclusive = small, poorly fitted or top-dose-only effect, or another doubt; inactive = no such curve, though single readings can be large or run the other way. This is one part of the list.
Experiment: Primary qHTS for Identification of Small Molecule Activators of Huntingtin-Antisense Promoter Activity; also: nearly all actives have a fitted effect of over 55% in size
Details: HEK293 HTT-AS promoter firefly luciferase reporter, 24 h; series mostly up to 57.5 µM; activity change, positive = activation: at the top concentration
Method in brief: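 Firefly luciferase readout (Dual-Glo, 10 min RT) after 24 h, 37 °C compound exposure (final up to 57.5 uM) of HEK293 reporter cells cultured 24 h beforehand; PTC124 at 50 uM final as control inhibitor; activity scaled vehicle 0%, zero RLU -100%.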

Activity change, positive = activation, inactive:
COc1cc(OC)c(OC)cc1CN1CCc2nc(Nc3ccc4c(c3)OCCO4)ncc2C1 -3.84%
COc1ccc(CNC(=O)C(=O)Nc2c3c(nn2-c2ccccc2)CSC3)cc1 -18.8%
O=C(NCc1cccs1)c1nn(-c2ccccc2Cl)nc1CO -8.86%
COCCCNc1nc2c(S(=O)(=O)c3ccccc3)nnn2c2ccc(Cl)cc12 -1.34%
CC1=C(C(=O)Nc2ccccc2)C(c2ccccc2C)n2nc(SCC(=O)c3ccc(C)cc3)nc2N1 (stereo not given) -2.66%
Cc1[nH]n(-c2ccccc2)c(=O)c1C(c1cc(Cl)ccc1O)c1c(C)[nH]n(-c2ccccc2)c1=O -8.64%
CCOC(=O)c1ccccc1NC(=O)N1CCN(Cc2cc(=O)n3nc(-c4ccccc4)sc3n2)CC1 -3.08%
O=C(NCCc1csc(-c2ccc(C(F)(F)F)cc2)n1)c1ccc(F)c(F)c1 -48.1%
CCOc1ccc(-c2cc(CCCC(=O)NCCc3ccc(Cl)cc3)no2)cc1 -73.3%
Cc1cccc(NC(=O)CSc2nc(-c3cccs3)cc(C(F)(F)F)c2C#N)c1C 6.21%
CCN(c1cccc(C)c1)S(=O)(=O)c1ccc(-n2cccn2)cc1 -36.1%
CCc1ccc(NC(=O)CCS(=O)(=O)c2cc3c(cc2Cl)NC(=O)CO3)cc1 -0.363%
Cc1ccc2[nH]cc(S(=O)(=O)c3ccc(C)c(C)c3)c(=O)c2c1 -9.47%
Cc1ccc(F)cc1NC(=O)CCc1c(C)nn(-c2ccc(N3CCOCC3)nn2)c1C 6.42%
CC1Cn2c(C(=O)NCCc3ccc(Cl)cc3)cc3cccc(c32)S1 (stereo not given) -25.1%
CCN(CC)CCNc1ccc(CO)c2sc3ccccc3c(=O)c12 -56.1%
Cc1c(C(=O)N2CCCC2)oc2c1-c1nn(CC(=O)NCc3ccccc3Br)cc1CC2 -32.3%
Cc1ccc(/C=C/c2onc(C)c2S(=O)(=O)N2CCC(C(=O)N3CCOc4ccc(C)cc43)CC2)cc1 -20.6%
COc1ccc(NC(=O)CCS(=O)(=O)c2nc(-c3ccc4c(c3)OCO4)cc(C(F)(F)F)n2)cc1 -40.9%
CSc1ccc(C2CC(=O)Oc3c2c(=O)n(C)c2ccccc32)cc1 (stereo not given) 5.07%
O=C(CN1C(=O)COc2ccc(S(=O)(=O)N3CCCCCC3)cc21)Nc1cccc(Cl)c1 -34.8%
COc1ccc(-c2cc(C(=O)Oc3ccc(C)cc3)c3cc(C)ccc3n2)cc1 10.3%
Cc1cc(=O)n(C(C)C(=O)N2CCCc3ccccc32)c2c1c(C)nn2-c1ccccc1 (stereo not given) -44.4%
CCOc1ccc2nc3cc(N)ccc3c(N)c2c1 -28.9%
Cc1[nH]n2c(=O)cc(-c3ccc(Cl)cc3)nc2c1-c1ccccc1 -58.7%
Cn1c(=O)c2c(nc(N3CCOCC3)n2Cc2cccc(Br)c2)n(C)c1=O -6.36%
Cc1ccccc1CNC(=O)Cc1ccc(NC(=O)N2CCCCc3ccccc32)cc1 -9.21%
COc1ccc(N2CCN(C(CNC(=O)C(=O)NCc3cccnc3)c3cccnc3)CC2)cc1 (stereo not given) -24.9%
CCOc1ccc(C(=O)c2cn(CC(=O)Nc3cccc(OC)c3)c3cc4c(cc3c2=O)OCCO4)cc1 -15%
Cc1c(C(=O)N2CCCCC2)c(S(=O)(=O)NCc2ccc(N(C)C)cc2)c(C)n1C -4.24%
CC(=O)OC[C@H]1O[C@@](COC(C)=O)(O[C@H]2O[C@H](COC(C)=O)[C@@H](OC(C)=O)[C@H](OC(C)=O)[C@H]2OC(C)=O)[C@@H](OC(C)=O)[C@@H]1OC(C)=O -7.68%
COc1ccccc1CNC(=O)C(C)n1ccc2cc(S(=O)(=O)N3CCCC3)ccc21 (stereo not given) -4.07%
COc1ccc(CNC(=O)c2ccc3nc(CCc4ccccc4)oc3c2)cc1 12.2%
CCOc1ccc(NC(=O)C2CCN(c3nnc(C)c4c(C)n(-c5ccccc5)nc34)CC2)cc1 -3.84%
Cc1ccc(NC(=O)CSc2nc3c([nH]c4ccccc43)c(=O)n2-c2ccccc2)cc1Cl -32.6%
Cc1ccc(-c2[nH]c3c(c2-c2c(-n4cccc4)n(C)c(=O)[nH]c2=O)c(=O)[nH]c(=O)n3C)cc1 -9.76%
CCOC(=O)c1c(C)oc2nc(C)nc(N3CCN(c4ccccc4F)CC3)c12 -42.5%
Cc1cccc(N2CCN(C(=O)C3CCN(C(=O)c4cc5sccc5n4C)CC3)CC2)c1C -33.5%
CCc1nc(SC)ncc1C(=O)N1CCN(c2cc(Cl)ccc2C)CC1 -35.8%
Cc1nn(C(C)C(=O)Nc2ccc(C(C)C)cc2)c(=O)c2c1sc1ccccc12 (stereo not given) -15.1%
CC(NC(=O)C1CCN(S(=O)(=O)c2ccccc2)CC1)c1ccccc1 (stereo not given) -6.05%
COc1cc(/C=C(\C#N)c2nc3ccccc3[nH]2)ccc1OCc1ccc(F)cc1 -19.7%
COc1cc(-c2nc(SCC(=O)Nc3ccc(C)cc3)c(-c3ccc(F)cc3)[nH]2)cc(OC)c1OC -39.4%
CCCN(CCC)CCCNC(=O)c1cnn(-c2ccc(F)cc2)c1-n1cccc1 -9.7%
Cc1cccc(-c2nn3c(=O)cc(CN4CCN(C(=O)c5ccccc5Br)CC4)nc3s2)c1 -3.35%
C#CC(C)(CC)NC(=O)Cn1nnc(-c2ccc(OCc3ccccc3C)cc2)n1 (stereo not given) -22.1%
COc1ccccc1N1CCN(C(=O)c2cnn(-c3cccc(Cl)c3)c2C2CCN(C(=O)OC(C)(C)C)CC2)CC1 -34.5%
CCCn1c2ccccc2c2cnn(CC(=O)NCC3CCN(Cc4ccc(F)cc4)CC3)c(=O)c21 -25%
CCc1ccccc1NC(=O)c1cc(S(=O)(=O)N2CCc3ccccc32)ccc1F -34.2%
CN(Cc1cnc2nc(N)nc(N)c2n1)c1ccc(C(=O)N[C@@H](CCC(=O)O)C(=O)O)cc1
COc1ccccc1CNc1nc(-c2ccco2)nn1C(=O)c1cc(OC)c(OC)c(OC)c1 25.2%
Cc1ccccc1CNC(=O)C1=Cc2ccccc2OC1 13.3%
Cc1ccc(-c2nnc(Nc3ccc(OC(F)(F)Cl)cc3)c3ccccc23)cc1S(=O)(=O)NC(C)(C)CO -11.1%
CC(=O)N1CCc2c(sc3nc(SCC(C)C)n(-c4ccc(C)c(Cl)c4)c(=O)c23)C1 -41.5%
N[C@@H](Cc1ccc(O)cc1)C(=O)O 1.4% [at 11.5 µM, percent change from vehicle, -100% = no light]
CCCCn1c(=N)c(S(=O)(=O)c2ccc(C)cc2)cc2c(=O)n3cc(C)ccc3nc21 -6.11%
CCc1nn2c(=O)cc(COC(=O)c3ccc(NC(=O)CCc4ccccc4)cc3)nc2s1 -6.36%
O=C(COc1ccc(Cl)cc1)N1CCN(Cc2ccc3c(c2)OCO3)CC1 -21.9%
O=C(COc1ccccc1)N(Cc1cccnc1)c1nc2c(F)cccc2s1 0.196%
Nc1ccc(NC(=O)c2cccc(C(=O)Nc3ccc(N)cc3Cl)c2)c(Cl)c1 -24.2%
Cc1ccc(Cl)cc1N1CCN(C(=O)CCCn2c(=O)[nH]c3ccc(Br)cc3c2=O)CC1 -42.4%
CCc1ccccc1NC(=O)C1CCN(c2cnccn2)CC1 -11.2%
CC(=O)c1nnn(-c2ccc(C)cc2Cl)c1C 3.82%
O=C(CCn1cnnn1)Nc1cc(C(F)(F)F)cc(C(F)(F)F)c1 -36.5%
CC(=O)c1ccc(Nc2ccc3cc(S(=O)(=O)N4CCCC4)ccc3n2)cc1 -21.7%
CC(C)Oc1cccc(C2CC(=O)Nc3cc4c(cc32)OCO4)c1 (stereo not given) -40.8%
COc1cc(NC(=O)CSc2nccn2C)cc(OC)c1OC 0.839%
COc1ccc2c(c1)c1c(c(=O)n(-c3ccc(OC)c(OC)c3)c(=O)n1Cc1ccccc1F)n2C -4.38%
CCCCSCCCNC(=O)c1cn(C)c2ccc(S(=O)(=O)N3CCCCCC3)cc2c1=O 6.89% [at 11.5 µM, percent change from vehicle, -100% = no light]
O=C(NCCS(=O)(=O)N1CCN(c2ccc(F)cc2)CC1)c1cccc(C(F)(F)F)c1 1.18%
Cc1ccc(NC(=O)c2c(NC(=O)Cc3ccccc3)sc3c2CCCC3)cc1 -15.5%
CCC(=O)C1=C(c2ccc(OC)c(OC)c2)N(C(=O)CC)n2c(CC)nnc2S1 -2.12%
CCOc1ccc(CCNC(=O)CN2C(=O)COc3ccc(S(=O)(=O)N4CCCCCC4)cc32)cc1 -34.3%
CC(=O)c1cccc(NC(=O)Cn2c(=O)oc3cc(S(=O)(=O)N4CCCC4)ccc32)c1 -29%
CC(=O)Nc1ccc(NC(=O)CCSCCc2ccccn2)cc1 -5.25%
CN(C)c1ccc(-c2nnc3n(Cc4ccccc4)c(=O)c4ccccc4n23)cc1 -19.9%
c1ccc(CN(CC2=NCCN2)c2ccccc2)cc1 -10.5%
CN(C)c1ccc(CNC(=O)c2ccc(NC(=O)N3CCCCc4ccccc43)cc2)cc1 -0.522%
COc1ccc(-n2c(SCC(=O)Nc3cccc(C)c3C)nc3c([nH]c4ccccc43)c2=O)cc1 -14.5%
O=S(=O)(Nc1cc(F)ccc1F)c1ccc2[nH]c3c(c2c1)CCCCC3 -25.7%
Cc1ccc2oc(=O)c3cc(C(=O)N4CCN(c5ccccc5F)CC4)sc3c2c1 -5.72%
CC(C)(C)c1ccc(Oc2ccc(NC(=O)CCC(=O)OCC(=O)c3ccccc3)cc2)cc1 -24.5%
O=C(CCn1ccc2cc(S(=O)(=O)N3CCCC3)ccc21)NCc1cccc(Cl)c1 -13.6%
Cc1cc(C(=O)NCc2cccc(Br)c2)c2c(C)nn(-c3ccccc3)c2n1 -19.2%
Cc1ccc(NC(=O)c2ccc(CNS(=O)(=O)c3ccc4c(c3)C(C)(C)C(=O)N4C)cc2)cc1C -45.5%
CC(=O)N1c2ccc(S(=O)(=O)NCC3CCC(C(=O)Nc4ccc(C)c(C)c4)CC3)cc2CC1C (stereo not given) -12.4%
COc1cc(CCNC(=O)c2ccc3c(c2)c(C)c(C)n3Cc2cccc(C)c2)cc(OC)c1OC -23.8%
COCCCn1c(=N)c(C(=O)NCc2cccnc2)cc2c(=O)n3cc(C)ccc3nc21 -2.26%
COc1ccc(OC)c(Nc2ncnc3c2nc2n3CCCC2)c1 9.06%
CCOc1ccc(NC(=O)c2nc3nc(C)cc(C(F)F)n3n2)cc1 8.24%

Reference: PubChem BioAssay AID1508624 (National Center for Advancing Translational Sciences (NCATS), 2021)
